Patent publication US11655268B2, “Nucleoside or nucleotide derivatives, and uses thereof” (ST Pharm Co., Ltd., priority 2018, dated 2023)

Tests used:
[1] = system: Influenza virus A/Puerto Rico/8/34 (H1N1); assay: Cytopathic effect reduction, influenza A H1N1 (PR8) in MDCK cells, MTT; conditions: for Selectivity index FluA H1N1 (PR8): CC50/EC50; for EC50: read-out: Anti-Flu activity EC50 FluA H1N1 (PR8), MDCK cells, day 3 post-infection
[2] = system: Influenza virus A/HongKong/8/68 (H3N2); assay: Cytopathic effect reduction, influenza A H3N2 (Hong Kong) in MDCK cells, MTT; conditions: for Selectivity index FluA H3N2 (Hong Kong): CC50/EC50; for EC50: read-out: Anti-Flu activity EC50 FluA H3N2 (Hong Kong), MDCK cells, day 3 post-infection

SMILES | Selectivity index FluA H1N1 (PR8) [1] | EC50 [1] [µM] | Selectivity index FluA H3N2 (Hong Kong) [2] | EC50 [2] [µM]
Nc1ccn([C@@H]2O[C@H](CO)[C@@H](O)C2(F)F)c(=O)n1 [Gemcitabine, reference compound] | 344 | 0.7 | 344 | 0.7
NC12CC3CC(CC(C3)C1)C2 [AMT, amantadine hydrochloride, reference compound] | – | > 100 | >90.9 | 1.1
Cc1ccc(C(=O)Nc2ccn([C@@H]3O[C@H](CO)[C@@H](O)C3(F)F)c(=O)n2)cn1 [Example 4, N-(1-((2R,4R,5R)-3,3-difluoro-4-hydroxy-5-(hydroxymethyl)tetrahydrofuran-2-yl)-2-oxo-1,2-dihydropyrimidin-4-yl)-6-methylnicotinamide] | >166.7 | 1.8 | >150.0 | 2
O=C(Nc1ccn([C@@H]2O[C@H](CO)[C@@H](O)C2(F)F)c(=O)n1)c1ccc(Cl)nc1 [Example 23, 6-Chloro-N-(1-((2R,4R,5R)-3,3-difluoro-4-hydroxy-5-(hydroxymethyl)tetrahydrofuran-2-yl)-2-oxo-1,2-dihydropyrimidin-4-yl)nicotinamide] | >15.9 | 6.3 | >12.2 | 8.2
COc1ccc(C(=O)Nc2ccn([C@@H]3O[C@H](CO)[C@@H](O)C3(F)F)c(=O)n2)nc1 [Example 21, N-(1-((2R,4R,5R)-3,3-difluoro-4-hydroxy-5-(hydroxymethyl)tetrahydrofuran-2-yl)-2-oxo-1,2-dihydropyrimidin-4-yl)-5-methoxypicolinamide] | >4.8 | 20.7 | >3.6 | 27.9
O=C(Nc1ccn([C@@H]2O[C@H](CO)[C@@H](O)C2(F)F)c(=O)n1)c1ccccn1 [Example 2, N-(1-((2R,4R,5R)-3,3-difluoro-4-hydroxy-5-(hydroxymethyl)tetrahydrofuran-2-yl)-2-oxo-1,2-dihydropyrimidin-4-yl)picolinamide] | >176.5 | 1.7 | >300 | 1
Cc1cncc(C(=O)Nc2ccn(C3O[C@H](CO)[C@@H](O)[C@H]3F)c(=O)n2)n1 (stereo in doubt) [Example 34, N-(1-((2S,3R,4R,5R)-3-fluoro-4-hydroxy-5-(hydroxymethyl)tetrahydrofuran-2-yl)-2-oxo-1,2-dihydropyrimidin-4-yl)-6-methylpyrazine-2-carboxamide] | >4.2 | 23.6 | >17.9 | 5.6
Cc1cccnc1C(=O)Nc1ccn([C@@H]2O[C@H](CO)[C@@H](O)C2(F)F)c(=O)n1 [Example 12, N-(1-((2R,4R,5R)-3,3-difluoro-4-hydroxy-5-(hydroxymethyl)tetrahydrofuran-2-yl)-2-oxo-1,2-dihydropyrimidin-4-yl)-3-methylpicolinamide] | >1.8 | 56.9 | >1.9 | 51.7
O=C(Nc1ccn([C@@H]2O[C@H](CO)[C@@H](O)C2(F)F)c(=O)n1)c1ccc(C(F)(F)F)nc1 [Example 14, N-(1-((2R,4R,5R)-3,3-difluoro-4-hydroxy-5-(hydroxymethyl)tetrahydrofuran-2-yl)-2-oxo-1,2-dihydropyrimidin-4-yl)-6-(trifluoromethyl)nicotinamide] | >16.7 | 6 | >34.5 | 2.9
Nc1ccn([C@@H]2O[C@H](CO)[C@@H](O)[C@H]2F)c(=O)n1 [2′-FdC, reference compound] | – | 3.7 | – | 13.1
O=C(Nc1ccn(C2O[C@H](CO)[C@@H](O)[C@H]2F)c(=O)n1)c1cccnn1 (stereo in doubt) [Example 33, N-(1-((2S,3R,4R,5R)-3-fluoro-4-hydroxy-5-(hydroxymethyl)tetrahydrofuran-2-yl)-2-oxo-1,2-dihydropyrimidin-4-yl)pyridazine-3-carboxamide] | >10.0 | 10 | >38.5 | 2.6

Counter-ions that a name gives are not always drawn.
